# Assay results from PubChem BioAssay AID1345083 (National Center for Advancing Translational Sciences (NCATS), 2018).
# Values joined by “and” are separate entries in the source; they are usually repeats but may differ in a detail not shown here. Identical values can stand only once. About 6,200 (6.6%) of roughly 94,000 compounds were called active. The shares of active, inactive and inconclusive entries below differ from those in the screen. Calls come from the whole dose curve; as a rule, active = well fitted inhibition curve with a large enough effect; inconclusive = small, poorly fitted or top-dose-only effect; inactive = flat fitted curve, though single readings scatter. Potencies beside an inconclusive call are fits to weak or partial responses and may not hold up.
# Assay: Cytotoxic Profiling in HEK 293 Cell Line of Diverse Libraries Using Quantitative High-Throughput Screening; note: nearly all actives have a fitted effect of over 60% in size
# Settings: HEK 293 viability, ATP luminescence (CellTiter-Glo), 48-72 h; activity change, negative = cytotoxicity: at 115 µM (top of the series) unless noted; series mostly up to 115 µM
# Procedure, shortened: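 Pintool-delivered compounds were incubated with HEK 293 cells (250 cells/well) at 37 degree Celsius for 48 or 72 hr. ATP-dependent luminescence (CellTiter-Glo) then reported remaining viable cells.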
# % is set by controls: 0 for no effect and ±100 for the full control effect; potency is the fitted concentration of half-maximal effect; tags give direction and shape of the fitted curve.
Structure (SMILES),Potency,"activity change, negative = cytotoxicity",outcome
O=C1N(CCc2ccccc2)c2ccccc2C12CCN(CC1CC1)C2 (stereo not drawn),"active: 39.8 µM and inconclusive: 56.2 µM [inhibitor, partial curve, poor fit]",–,–
Cc1noc(C)c1C(=O)N1CCCC(N2C(=O)c3c(c(C)nn3-c3ccccc3)C2C)C1 (stereo not drawn),"inconclusive: 44.7 µM [inhibitor, partial curve]",–,–
COc1ccc(C(=O)N2CCC3(CC2)c2[nH]c4ccccc4c2CCN3C)c(OC)n1,–,inactive: -28.6%,–
O=C1N(CC2CC2)CCOC12CCN([S+](=O)([O-])c1ccccc1)CC2,–,inactive: -17.2% [at 172 µM],–
COc1ccc(CN2CCC3(CC2)CC(=O)Nc2ccccc2O3)cc1,"inconclusive: 79.4 µM [inhibitor, partial curve, poor fit]",–,–
COc1cccc(CN2CCCCCCNC(=O)[C@@H]3CCC[C@@H]32)c1OC,"inconclusive: 39.8 µM [inhibitor, full curve, poor fit]",–,–
COc1ccc(CNC(=O)[C@@H](C)C2CC[C@@]3(C)CC[C@H](NC(=O)C4CC4)[C@@H](C)[C@@H]3[C@H]2O)cc1 (stereo partly drawn),"inconclusive: 100 µM [inhibitor, single point]",–,–
O=C(c1n[nH]c2ccccc12)N1CCCC1c1nc(CCOCC2CCOCC2)no1 (stereo not drawn),–,inactive: -5.59%,–
Clc1ccc(C2Cn3nnc(-c4noc(COc5ccccc5)n4)c3CO2)cc1 (stereo not drawn),"inconclusive: 79.4 µM [inhibitor, single point]",–,–
COc1cccc(N2CC(C(=O)N3CCC(C(=O)NCCc4ccc(Cl)cc4)C3)NC2=O)c1 (stereo not drawn),"inconclusive: 100 µM [inhibitor, single point]",–,–
COCCN1C(=O)N(CCc2ccccc2)C(=O)C12CCN(C/C=C/c1ccccc1)CC2,"inconclusive: 56.2 µM [inhibitor, partial curve, poor fit]",–,–
C[S+](=O)([O-])N1Cc2ccccc2CC2(CCN(CC3CCNCC3)CC2)C1,–,inactive: 2.43%,–
CC(=O)N1CCC2(CC1)OC(=O)N(Cc1ccccc1)C2(C)c1cccnc1 (stereo not drawn),–,–,inactive [at 172 µM]
CC(=O)NC[C@@H]1C=C(C)[C@H](Cc2nc3ccccc3[nH]2)C[C@H]1C(C)C,"inconclusive: 89.1 µM [inhibitor, partial curve, poor fit]",–,–
C[S+](=O)([O-])NCc1nnc2n1C(C(=O)NCc1cccc(Cl)c1)CC2 (stereo not drawn),–,inactive: -23.7%,–
O=C1N(Cc2ccccn2)C[C@H]2CN(Cc3cccc(OC(F)(F)F)c3)CCN12,"inconclusive: 100 µM [inhibitor, partial curve]",–,–
N#Cc1cccc(NC(=S)N[C@H]2CO[C@H]3[C@@H]2OC[C@@H]3n2cc(-c3ccccn3)nn2)c1,"inconclusive: 89.1 µM [inhibitor, partial curve]",–,–
O=S(=O)(N[C@H]1CO[C@H]2[C@@H]1OC[C@@H]2Nc1nccc(-c2cccs2)n1)c1cccs1,active: 28.2 µM,–,–
COc1ccc(C(=O)Nc2ccc([C@H]3OCC(=O)N(Cc4nccn4C)[C@@H]3CO)cc2)cc1,–,inactive: -18.3%,–
O=C1Nc2ccccc2C12CN(Cc1ccc(F)cc1)C2,"inconclusive: 100 µM [inhibitor, partial curve]",–,–
CC(C)c1ccc(CC(=O)N2CCCc3ncc(C(=O)NCC(C)(C)CO)cc32)cc1,"inconclusive: 126 µM [inhibitor, single point]",–,–

Structure (SMILES),Potency,"activity change, negative = cytotoxicity",outcome
CN(C)c1ccc(CN2CCC3(CC2)COc2ccccc2C(=O)N3)cc1,"inconclusive: 28.2 µM [inhibitor, full curve, poor fit]",–,–
Cc1nc(CN2Cc3nc(-c4cccc(C(F)(F)F)c4)ccc3OCC2=O)cs1,active: 100 µM,–,–
Cc1ccccc1CCC1CCCN(S(C)(=O)=O)C1 (stereo not drawn),"inconclusive: 39.8 µM [inhibitor, partial curve, poor fit]",–,–
O=C(N[C@@H]1c2ccccc2C[C@@H]1O)c1cc(COc2ccccc2F)[nH]n1,"inconclusive: 79.4 µM [inhibitor, single point]",–,–
CC(=O)Nc1cccc(-c2nc(-c3c(C)noc3C)cc3c2cc(C)n3CCN(C)C)c1,active: 79.4 µM,–,–
Cc1ccc(C)c(-n2nc(-c3c(C)nc4scc(CC(=O)NC5CCCCC5)n4c3=O)cc2C)c1,"inconclusive: 8.91 µM [inhibitor, full curve, poor fit]",–,–
O=C(c1ccccc1)N1CCN(C(=O)c2nc3cccnc3n(CCc3ccccc3)c2=O)CC1,–,inactive: -20.5%,–
Cc1cc(OCC(=O)c2ccc3c(c2)N(CCCC(=O)NCC2CC2)C(=O)CO3)ccc1Cl,"inconclusive: 100 µM [inhibitor, single point]",–,–
COc1ccccc1CCNC(=O)c1nc2cccnc2n(-c2ccccc2OC)c1=O,–,inactive: -23.1%,–
C=CCN(Cc1nc(-c2ccccc2)no1)C(=O)c1cccc(OC)c1OC,"inconclusive: 3.98 µM [inhibitor, full curve, poor fit]",–,–
O=C1CC(c2ccccc2)N(Cc2ccncc2)CCCN(C(=O)NCCc2ccccc2)CCN1 (stereo not drawn),"inconclusive: 50.1 µM [inhibitor, partial curve, poor fit]",–,–
O=C1CCN(CC(O)C(F)(F)F)c2ccsc2CN1Cc1ccccc1 (stereo not drawn),"inconclusive: 39.8 µM [inhibitor, full curve, poor fit]",–,–
COCCNC(=O)Cc1ccc(N(Cc2ccccc2)C(=O)c2ccco2)cc1,–,inactive: -1.45%,–
COc1cccc(-c2cc(C(=O)O)cc(S(=O)(=O)N3CCSCC3)c2)c1,–,inactive: 2.61%,–
OCC1(CN2CCCC2)CCN(Cc2cccc(Cn3cccn3)c2)CC1,"inconclusive: 89.1 µM [inhibitor, single point]",–,–
COc1ccc(C(=O)N2CCCC(CO)CCNC(=O)CC2)cc1 (stereo not drawn),–,–,inactive
O=C1NC(=NC2CCCC2)C2(CCCN(CC3CCCCC3)C2)N1c1cccnc1 (stereo not drawn),"inconclusive: 50.1 µM [inhibitor, partial curve, poor fit]",–,–
CC(C)c1noc(-c2cn(C3CCN(C(=O)c4cc(F)ccc4F)CC3)nn2)n1,"inconclusive: 25.1 µM [inhibitor, full curve]",–,–
COC[C@@H]1CN(C(=O)CC(C)C)C[C@H]1c1nc(C)no1,"inconclusive: 35.5 µM [inhibitor, single point]",–,–
COc1ccc(N2CC(C(=O)N(C)C)NC2=O)cc1 (stereo not drawn),–,inactive: -12.7% [at 172 µM],–
Cc1cccc(C)c1-c1nc(C(=O)N2CCN(c3ncccn3)CC2)n2ccccc12,"inconclusive: 25.1 µM [inhibitor, partial curve, poor fit] and inconclusive: 15.8 µM [inhibitor, full curve, poor fit]",–,–

Structure (SMILES),Potency,"activity change, negative = cytotoxicity",outcome
O=C(c1ccc(Cl)nc1)N1CCC(C(=O)N2CCC(N3CCOC3=O)CC2)CC1,–,inactive: 2.93%,–
COc1cccc(CNC(=O)c2cc3n(n2)CC(c2ccc4c(c2)OCO4)OC3)c1 (stereo not drawn),"inconclusive: 56.2 µM [inhibitor, partial curve, poor fit]",–,–
Cc1cc(C(=O)N(Cc2ccncc2)Cc2cccc(OCCc3ccc(F)cc3)c2)n(C)n1,"inconclusive: 44.7 µM [inhibitor, partial curve, poor fit]",–,–
COC(=O)CNC(=O)c1cc(-c2ccc(C(F)(F)F)cc2)nc2c1cnn2C,"inconclusive: 89.1 µM [inhibitor, single point]",–,–
O=C(O)[C@@H]1CN(Cc2ccccc2)C[C@@H]1C(=O)N1CCOCC1,–,inactive: -16.4%,–
CCOc1ccc(CN2CCCC23Cc2ccccc2CNC3=O)cc1 (stereo not drawn),"inconclusive: 35.5 µM [inhibitor, partial curve, poor fit]",–,–
CCOc1ccc(C(=O)N2CCN(C(=O)c3nnn4c3COC(c3ccc(Cl)cc3)C4)CC2)cc1 (stereo not drawn),–,inactive: 7.61%,–
O=C(Cc1c(F)cccc1Cl)NC1CCN(c2cc(-c3ccc(F)cc3)[nH]n2)CC1,"inconclusive: 39.8 µM [inhibitor, partial curve, poor fit]",–,–
Cc1cccc(CNC(=O)c2cc3n(n2)CC(c2ccc4c(c2)OCO4)OC3)c1 (stereo not drawn),"inconclusive: 79.4 µM [inhibitor, single point]",–,–
COc1cccc(-c2ccc(CN3CCCC(N[S+](=O)([O-])c4cccs4)C3)cc2)c1 (stereo not drawn),active: 12.6 µM,–,–
C=CCO[C@@H]1CCN2C(=O)c3cc(-c4ccc(OC)cc4)ccc3NC(=O)[C@H]12,"inconclusive: 112 µM [inhibitor, partial curve, poor fit]",–,–
CC1(C)CN(C(=O)c2cn(CCN3CCNCC3)nn2)C[C@]1(C)O,–,inactive: -9.44%,–
COc1ccc(-c2cc(N3CCCC(NC(=O)C4CCCCC4)C3)n[nH]2)cc1 (stereo not drawn),"inconclusive: 39.8 µM [inhibitor, partial curve]",–,–
COc1ccc(C(=O)NCc2nnc3ccc(-c4ccc(C)c(C)c4)nn23)cc1F,"inconclusive: 39.8 µM [inhibitor, partial curve]",–,–
CC(C)NC(=O)N(C1CC1)C1CCOC2(CCN(C(=O)C3CC3)CC2)C1 (stereo not drawn),–,inactive: -1.4%,–
O=C(Nc1ccc(Cl)cc1)N1CCn2c(nn(-c3ccc([N+](=O)[O-])cc3)c2=O)C1,"inconclusive: 89.1 µM [inhibitor, single point]",–,–
CCOC(=O)C1CCCN(C(=O)C2CCc3nnc(CNC(=O)NC(C)(C)C)n32)C1 (stereo not drawn),–,inactive: 4.56%,–
COC[C@@H]1CN(S(=O)(=O)c2cccc(C)c2)C[C@H]1c1nc(C)no1,–,–,inactive
O=C(N1CCC(c2ccccc2)CC1)C1(c2ccc(Cl)cc2)CCOCC1,"inconclusive: 50.1 µM [inhibitor, partial curve, poor fit]",–,–
Cc1nn(-c2ccccc2)c2c1C(C1CC1)N(CC1CN(C(=O)C3CC3)C1)C2=O (stereo not drawn),"inconclusive: 56.2 µM [inhibitor, partial curve, poor fit]",–,–
CN1CC(c2ccccc2)CC2(CCN(C(=O)CCCn3ccnc3)CC2)C1 (stereo not drawn),"inconclusive: 79.4 µM [inhibitor, single point]",–,–
